# Source: the supplement of paper PMC8728848
# Some of the results follow.
# B1: PX9896A-bth-573-26-573 (Bacteroides thetaiotaomicron) (protein)
# chain: ETNNLKTKEDMYKYFGTSKSMLTHVYSYMPQGYQLFATSGGIFTEDRYSMRDCASDDGEFGAYADNIQNTNNGNWSPIKTYDDSWTLYRGIRAANSFIAEIAQVDFTRYEHDGQYTNWMKQLKYFPYEARVLRAHYFFELARRYGDIAMPLEVLTEEEANTIGKTPFSEVISFIVSECDDAANNLPDSYVNEPGAEIGRVTKGFAMAVKSKALLYAASKLHNPSMDTELWKKSAKAAIDIINTGLYSLDPQESANNLDSKEVVLMRINGDDSDFEMFNLPLRMTAGTRTSSLIPYSNYPSQNLVDAFETVNGYKVTLENTGWVCEDPAFDPQSPYENRDKRFYRAILANGMSFKDYTIETFKGGADDGIVSQGGSPTGYFLRKYIQEATSFEPGKEAVSKHHWVIYRYAETLLTYAESMVNAFNDVNYTDETYKYSALWAINEVRKNADMPLIPSMGKDEFMERLYNEWRVEFAFEDHRFWDVRRWKIADTTQRELYGVKIEKQADGTFNFYKNLYETRNWRDCMYLYPIPQSELYKNTNLNPQNTGW
# How the values were obtained:
# Assay in all cases: glycan array binding signal (z-score within array); higher = stronger binding
# Conditions in all cases: glycan notation: IUPAC condensed, linker removed
# Gal(b1-4)Glc = target: Gal(b1-4)Glc
# Procedure, shortened: (§1)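 From the Consortium for Functional Glycomics database, 3228 arrays were curated, keeping only those whose protein sequence was available. Binding is given as a within-array Z-score averaged across arrays sharing a protein sequence and across linkers. Negative Z-scores can be read as non-binding.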
# Gal(b1-4)Glc6S = target: Gal(b1-4)Glc6S
# Procedure, shortened: as §1
# Gal(b1-4)GlcNAc = target: Gal(b1-4)GlcNAc
# Procedure, shortened: as §1
# [1] = target: Gal(b1-4)GlcNAc(a1-6)Gal(b1-4)GlcNAc
# Procedure, shortened: as §1
# Gal(b1-4)GlcNAc(b1-2)Man = target: Gal(b1-4)GlcNAc(b1-2)Man
# Procedure, shortened: as §1
# [2] = target: Gal(b1-4)GlcNAc(b1-2)Man(a1-3)Man(b1-4)GlcNAc(b1-4)GlcNAc
# Procedure, shortened: as §1
# [3] = target: Gal(b1-4)GlcNAc(b1-2)Man(a1-3)[Gal(b1-4)GlcNAc(b1-2)Man(a1-6)]Man(b1-4)GlcNAc(b1-4)GlcNAc
# Procedure, shortened: as §1
# [4] = target: Gal(b1-4)GlcNAc(b1-2)Man(a1-3)[Gal(b1-4)GlcNAc(b1-2)Man(a1-6)]Man(b1-4)GlcNAc(b1-4)[Fuc(a1-6)]GlcNAc
# Procedure, shortened: as §1
# [5] = target: Gal(b1-4)GlcNAc(b1-2)Man(a1-3)[Gal(b1-4)GlcNAc(b1-2)Man(a1-6)][Gal(b1-4)GlcNAc(b1-4)]Man(b1-4)GlcNAc(b1-4)[Fuc(a1-6)]GlcNAc
# Procedure, shortened: as §1
# [6] = target: Gal(b1-4)GlcNAc(b1-2)Man(a1-3)[Gal(b1-4)GlcNAc(b1-2)Man(a1-6)][GlcNAc(b1-4)]Man(b1-4)GlcNAc(b1-4)[Fuc(a1-6)]GlcNAc
# Procedure, shortened: as §1
# [7] = target: Gal(b1-4)GlcNAc(b1-2)Man(a1-3)[GlcNAc(b1-2)Man(a1-6)]Man(b1-4)GlcNAc(b1-4)GlcNAc
# Procedure, shortened: as §1
# [8] = target: Gal(b1-4)GlcNAc(b1-2)Man(a1-3)[GlcNAc(b1-4)][Gal(b1-4)GlcNAc(b1-2)Man(a1-6)]Man(b1-4)GlcNAc(b1-4)GlcNAc
# Procedure, shortened: as §1
# [9] = target: Gal(b1-4)GlcNAc(b1-2)Man(a1-3)[Man(a1-6)]Man(b1-4)GlcNAc(b1-4)GlcNAc
# Procedure, shortened: as §1
# [10] = target: Gal(b1-4)GlcNAc(b1-2)Man(a1-6)Man(b1-4)GlcNAc(b1-4)GlcNAc
# Procedure, shortened: as §1
# [11] = target: Gal(b1-4)GlcNAc(b1-2)Man(a1-6)[GlcNAc(b1-2)Man(a1-3)]Man(b1-4)GlcNAc(b1-4)GlcNAc
# Procedure, shortened: as §1
# [12] = target: Gal(b1-4)GlcNAc(b1-2)Man(a1-6)[Man(a1-3)]Man(b1-4)GlcNAc(b1-4)GlcNAc
# Procedure, shortened: as §1
# [13] = target: Gal(b1-4)GlcNAc(b1-2)[Gal(b1-4)GlcNAc(b1-4)]Man(a1-3)[Gal(b1-4)GlcNAc(b1-2)Man(a1-6)]Man(b1-4)GlcNAc(b1-4)GlcNAc
# Procedure, shortened: as §1
# [14] = target: Gal(b1-4)GlcNAc(b1-2)[Gal(b1-4)GlcNAc(b1-4)]Man(a1-3)[Gal(b1-4)GlcNAc(b1-2)[Gal(b1-4)GlcNAc(b1-6)]Man(a1-6)]Man(b1-4)GlcNAc(b1-4)GlcNAc
# Procedure, shortened: as §1
# [15] = target: Gal(b1-4)GlcNAc(b1-2)[Gal(b1-4)GlcNAc(b1-4)]Man(a1-3)[GlcNAc(b1-4)][Gal(b1-4)GlcNAc(b1-2)Man(a1-6)]Man(b1-4)GlcNAc(b1-4)GlcNAc
# Procedure, shortened: as §1
# [16] = target: Gal(b1-4)GlcNAc(b1-2)[Gal(b1-4)GlcNAc(b1-4)]Man(a1-3)[GlcNAc(b1-4)][Gal(b1-4)GlcNAc(b1-2)[Gal(b1-4)GlcNAc(b1-6)]Man(a1-6)]Man(b1-4)GlcNAc(b1-4)GlcNAc
# Procedure, shortened: as §1
# [17] = target: Gal(b1-4)GlcNAc(b1-2)[Gal(b1-4)GlcNAc(b1-6)]Man(a1-6)[Gal(b1-4)GlcNAc(b1-2)Man(a1-3)]Man(b1-4)GlcNAc(b1-4)GlcNAc
# Procedure, shortened: as §1
# [18] = target: Gal(b1-4)GlcNAc(b1-2)[Gal(b1-4)GlcNAc(b1-6)]Man(a1-6)[Gal(b1-4)GlcNAc(b1-2)Man(a1-3)]Man(b1-4)GlcNAc(b1-4)[Fuc(a1-6)]GlcNAc
# Procedure, shortened: as §1
# [19] = target: Gal(b1-4)GlcNAc(b1-2)[Gal(b1-4)GlcNAc(b1-6)]Man(a1-6)[GlcNAc(b1-4)][Gal(b1-4)GlcNAc(b1-2)Man(a1-3)]Man(b1-4)GlcNAc(b1-4)GlcNAc
# Procedure, shortened: as §1
# [20] = target: Gal(b1-4)GlcNAc(b1-2)[Gal(b1-4)GlcNAc(b1-6)]Man(a1-6)[GlcNAc(b1-4)][Gal(b1-4)GlcNAc(b1-2)[Gal(b1-4)GlcNAc(b1-4)]Man(a1-3)]Man(b1-4)GlcNAc(b1-4)[Fuc(a1-6)]GlcNAc
# Procedure, shortened: as §1
# [21] = target: Gal(b1-4)GlcNAc(b1-3)Gal(b1-3)GalNAc
# Procedure, shortened: as §1
# [22] = target: Gal(b1-4)GlcNAc(b1-3)Gal(b1-3)GlcNAc
# Procedure, shortened: as §1
# [23] = target: Gal(b1-4)GlcNAc(b1-3)Gal(b1-4)Glc
# Procedure, shortened: as §1
# [24] = target: Gal(b1-4)GlcNAc(b1-3)Gal(b1-4)GlcNAc
# Procedure, shortened: as §1
# [25] = target: Gal(b1-4)GlcNAc(b1-3)Gal(b1-4)GlcNAc(b1-2)Man(a1-3)[Gal(b1-4)GlcNAc(b1-3)Gal(b1-4)GlcNAc(b1-2)Man(a1-6)]Man(b1-4)GlcNAc(b1-4)GlcNAc
# Procedure, shortened: as §1
# [26] = target: Gal(b1-4)GlcNAc(b1-3)Gal(b1-4)GlcNAc(b1-2)Man(a1-3)[Gal(b1-4)GlcNAc(b1-3)Gal(b1-4)GlcNAc(b1-2)Man(a1-6)]Man(b1-4)GlcNAc(b1-4)[Fuc(a1-6)]GlcNAc
# Procedure, shortened: as §1
binder,measurement,setting,value
B1,glycan array binding signal (z-score),Gal(b1-4)Glc,-0.15
same,glycan array binding signal (z-score),Gal(b1-4)Glc6S,-0.111
same,glycan array binding signal (z-score),Gal(b1-4)GlcNAc,-0.146
same,glycan array binding signal (z-score),[1],-0.94
same,glycan array binding signal (z-score),Gal(b1-4)GlcNAc(b1-2)Man,0.175
same,glycan array binding signal (z-score),[2],1.24
same,glycan array binding signal (z-score),[3],-0.399
same,glycan array binding signal (z-score),[4],-0.077
same,glycan array binding signal (z-score),[5],-0.452
same,glycan array binding signal (z-score),[6],-0.216
same,glycan array binding signal (z-score),[7],3.74
same,glycan array binding signal (z-score),[8],-0.734
same,glycan array binding signal (z-score),[9],0.862
same,glycan array binding signal (z-score),[10],-0.437
same,glycan array binding signal (z-score),[11],4.65
same,glycan array binding signal (z-score),[12],-0.389
same,glycan array binding signal (z-score),[13],-1.03
same,glycan array binding signal (z-score),[14],-0.212
same,glycan array binding signal (z-score),[15],-0.191
same,glycan array binding signal (z-score),[16],0.745
same,glycan array binding signal (z-score),[17],-0.697
same,glycan array binding signal (z-score),[18],0.144
same,glycan array binding signal (z-score),[19],0.116
same,glycan array binding signal (z-score),[20],0.323
same,glycan array binding signal (z-score),[21],-0.185
same,glycan array binding signal (z-score),[22],-0.444
same,glycan array binding signal (z-score),[23],-0.849
same,glycan array binding signal (z-score),[24],0.214
same,glycan array binding signal (z-score),[25],1.77
same,glycan array binding signal (z-score),[26],-0.438
